# Laboratory results reported in the supplement of paper PMC10037445.
# ± gives the standard deviation of the averaged measurements. The full ranking holds about 2,900 compounds; the median of “NF-kB SEAP reporter activity, fold change vs agonist alone” is about 0.99, and the highest 2% start at about 2.6. The list shows a part of the results.
# Key:
# RAW-Dual [1] = assay: NF-kB SEAP reporter activity, fold change vs agonist alone; higher = enhanced NF-kB activity; details: library stock concentration (final ~1000-fold dilution): 10 mM
# Method in brief: (§1)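 RAW-Dual macrophages were seeded in DMEM at 50,000 cells/well in 384-well plates, given 50 nL of library stock by pin tool, and given a PRR agonist 1 h later. Plates were held at 37 °C, 5% CO2 for 20 hours, after which supernatant was read for IRF by QuantiLuc luminescence and for NF-κB by QuantiBlue absorbance at 620 nm. Reporter activity is expressed as fold change over wells that received agonist alone. A well was called cytotoxic when IncuCyte confluency fell below 70% of agonist controls in both mask sets.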
# RAW-Dual [2] = assay: NF-kB SEAP reporter activity, fold change vs agonist alone; cytotoxicity flag (confluency mask): not cytotoxic; higher = enhanced NF-kB activity
# Method in brief: as §1
# RAW-Dual [3] = assay: NF-kB SEAP reporter activity, fold change vs agonist alone; cytotoxicity flag (confluency mask): cytotoxic (confluency <70% of control); higher = enhanced NF-kB activity
# Method in brief: as §1
# [4] = cytotoxicity flag (confluency mask): not cytotoxic, agonist: Imiquimod (TLR7) […]
# [5] = cytotoxicity flag (confluency mask): not cytotoxic, agonist: MPLA (TLR4) […]
# [6] = agonist: ODN 1826 (TLR9) 0.5 ug/mL
# [7] = agonist: Pam2CSK4 (TLR2/6) 0.1 ug/mL
# [8] = agonist: Pam3CSK4 (TLR2/1) 0.1 ug/mL
# [9] = cytotoxicity flag (confluency mask): cytotoxic (confluency <70% of control), agonist: Imiquimod (TLR7) […]
# [10] = cytotoxicity flag (confluency mask): cytotoxic (confluency <70% of control), agonist: MPLA (TLR4) […]
smiles,measurement,setting,value
Cc1c(CN2CCC(Nc3ncnc4sc(CC(F)(F)F)cc34)CC2)ccc2[nH]c(C#N)cc12,NF-kB SEAP reporter activity,RAW-Dual [1]; [4],0.878
same,NF-kB SEAP reporter activity,RAW-Dual [1]; [5],0.915
Cc1c(CN2CCC(Nc3ncnc4sc(CC(F)(F)F)cc34)CC2)ccc2[nH]c(C#N)cc12 (library stock concentration (final ~1000-fold dilution): 10 mM),NF-kB SEAP reporter activity,RAW-Dual [2]; agonist: LPS (TLR4) 0.1 ug/mL,1.32
same,NF-kB SEAP reporter activity,RAW-Dual [2]; [6],0.176
same,NF-kB SEAP reporter activity,RAW-Dual [2]; [7],0.631
same,NF-kB SEAP reporter activity,RAW-Dual [2]; [8],0.575
O=[N+]([O-])c1ccc(Sc2cccc[n+]2[O-])c2nonc12 (library stock concentration (final ~1000-fold dilution): 10 mM),NF-kB SEAP reporter activity,RAW-Dual [3]; agonist: LPS (TLR4) 0.1 ug/mL,0.28
same,NF-kB SEAP reporter activity,RAW-Dual [3]; [6],0.209
same,NF-kB SEAP reporter activity,RAW-Dual [3]; [7],0.113
same,NF-kB SEAP reporter activity,RAW-Dual [3]; [8],0.15
O=[N+]([O-])c1ccc(Sc2cccc[n+]2[O-])c2nonc12,NF-kB SEAP reporter activity,RAW-Dual [1]; [9],0.159
same,NF-kB SEAP reporter activity,RAW-Dual [1]; [10],0.375
O=C1NC(=O)C(c2cn3c4c(cccc24)CCC3)C1c1c[nH]c2ccccc12 (centres undefined),NF-kB SEAP reporter activity,RAW-Dual [1]; [4],2.44
same,NF-kB SEAP reporter activity,RAW-Dual [1]; [5],1.84
O=C1NC(=O)C(c2cn3c4c(cccc24)CCC3)C1c1c[nH]c2ccccc12 (centres undefined) (library stock concentration (final ~1000-fold dilution): 10 mM),NF-kB SEAP reporter activity,RAW-Dual [2]; agonist: LPS (TLR4) 0.1 ug/mL,3.41
same,NF-kB SEAP reporter activity,RAW-Dual [2]; [6],2.7
same,NF-kB SEAP reporter activity,RAW-Dual [2]; [7],1.49
same,NF-kB SEAP reporter activity,RAW-Dual [2]; [8],1.4
NC(=O)c1ccc(I)c([N+](=O)[O-])c1 (library stock concentration (final ~1000-fold dilution): 10 mM),NF-kB SEAP reporter activity,RAW-Dual [2]; agonist: LPS (TLR4) 0.1 ug/mL,0.752
same,NF-kB SEAP reporter activity,RAW-Dual [2]; [6],0.629
same,NF-kB SEAP reporter activity,RAW-Dual [2]; [7],0.641
same,NF-kB SEAP reporter activity,RAW-Dual [2]; [8],0.735
NC(=O)c1ccc(I)c([N+](=O)[O-])c1,NF-kB SEAP reporter activity,RAW-Dual [1]; [4],0.765
same,NF-kB SEAP reporter activity,RAW-Dual [1]; [5],0.977
CC(N)C12CC3CC(CC(C3)C1)C2.Cl (centres undefined),NF-kB SEAP reporter activity,RAW-Dual [1]; [5],1.06
CC(N)C12CC3CC(CC(C3)C1)C2.Cl (centres undefined) (library stock concentration (final ~1000-fold dilution): 10 mM),NF-kB SEAP reporter activity,RAW-Dual [2]; agonist: LPS (TLR4) 0.1 ug/mL,1.15
same,NF-kB SEAP reporter activity,RAW-Dual [2]; [6],0.619
same,NF-kB SEAP reporter activity,RAW-Dual [2]; [7],1.24
same,NF-kB SEAP reporter activity,RAW-Dual [2]; [8],0.847
O=C(NCc1ccccn1)Nc1nnc(-c2ccco2)o1,NF-kB SEAP reporter activity,RAW-Dual [1]; [4],0.891
same,NF-kB SEAP reporter activity,RAW-Dual [1]; [5],0.925
O=C(NCc1ccccn1)Nc1nnc(-c2ccco2)o1 (library stock concentration (final ~1000-fold dilution): 10 mM),NF-kB SEAP reporter activity,RAW-Dual [2]; agonist: LPS (TLR4) 0.1 ug/mL,1.08
same,NF-kB SEAP reporter activity,RAW-Dual [2]; [6],1.13
same,NF-kB SEAP reporter activity,RAW-Dual [2]; [7],0.952
same,NF-kB SEAP reporter activity,RAW-Dual [2]; [8],1.05
CCCNC(=O)Nc1ccc(Oc2ncnc3cc(OC)c(OC)cc23)cc1Cl (library stock concentration (final ~1000-fold dilution): 10 mM),NF-kB SEAP reporter activity,RAW-Dual [2]; agonist: LPS (TLR4) 0.1 ug/mL,0.912
same,NF-kB SEAP reporter activity,RAW-Dual [2]; [6],1.12
same,NF-kB SEAP reporter activity,RAW-Dual [2]; [7],1.07
same,NF-kB SEAP reporter activity,RAW-Dual [2]; [8],1.12
CCCNC(=O)Nc1ccc(Oc2ncnc3cc(OC)c(OC)cc23)cc1Cl,NF-kB SEAP reporter activity,RAW-Dual [1]; [4],0.808
same,NF-kB SEAP reporter activity,RAW-Dual [1]; [5],1.12
COC1=CC(=O)c2ccccc2C1=O (library stock concentration (final ~1000-fold dilution): 10 mM),NF-kB SEAP reporter activity,RAW-Dual [3]; agonist: LPS (TLR4) 0.1 ug/mL,0.216
same,NF-kB SEAP reporter activity,RAW-Dual [3]; [6],0.239
same,NF-kB SEAP reporter activity,RAW-Dual [3]; [7],1.77
same,NF-kB SEAP reporter activity,RAW-Dual [3]; [8],0.178
COC1=CC(=O)c2ccccc2C1=O,NF-kB SEAP reporter activity,RAW-Dual [1]; [9],0.54
same,NF-kB SEAP reporter activity,RAW-Dual [1]; [10],0.297
Cc1cn(-c2cc(NC(=O)c3ccc(C)c(Nc4nccc(-c5cccnc5)n4)c3)cc(C(F)(F)F)c2)cn1 (library stock concentration (final ~1000-fold dilution): 10 mM),NF-kB SEAP reporter activity,RAW-Dual [2]; agonist: LPS (TLR4) 0.1 ug/mL,1.22
same,NF-kB SEAP reporter activity,RAW-Dual [2]; [6],1.95
same,NF-kB SEAP reporter activity,RAW-Dual [2]; [7],0.91
same,NF-kB SEAP reporter activity,RAW-Dual [2]; [8],0.881
Cc1cn(-c2cc(NC(=O)c3ccc(C)c(Nc4nccc(-c5cccnc5)n4)c3)cc(C(F)(F)F)c2)cn1,NF-kB SEAP reporter activity,RAW-Dual [1]; [4],1.86
same,NF-kB SEAP reporter activity,RAW-Dual [1]; [5],1.27
CC(C)(C)c1ccc(S(=O)(=O)/C=C/C#N)cc1,NF-kB SEAP reporter activity,RAW-Dual [1]; [9],0.143 ± 0.006
same,NF-kB SEAP reporter activity,RAW-Dual [1]; [10],0.256 ± 0.023
same,NF-kB SEAP reporter activity,RAW-Dual [1]; [4],0.521
same,NF-kB SEAP reporter activity,RAW-Dual [1]; [5],0.288
CC(C)(C)c1ccc(S(=O)(=O)/C=C/C#N)cc1 (library stock concentration (final ~1000-fold dilution): 10 mM),NF-kB SEAP reporter activity,RAW-Dual [2]; agonist: LPS (TLR4) 0.1 ug/mL,0.328
same,NF-kB SEAP reporter activity,RAW-Dual [2]; [6],0.234
same,NF-kB SEAP reporter activity,RAW-Dual [2]; [7],0.112
same,NF-kB SEAP reporter activity,RAW-Dual [2]; [8],0.273
same,NF-kB SEAP reporter activity,RAW-Dual [3]; agonist: LPS (TLR4) 0.1 ug/mL,0.3 ± 0.13
same,NF-kB SEAP reporter activity,RAW-Dual [3]; [6],0.182 ± 0.0059
same,NF-kB SEAP reporter activity,RAW-Dual [3]; [7],0.0737 ± 0.012
same,NF-kB SEAP reporter activity,RAW-Dual [3]; [8],0.154 ± 0.007
CCNC(=O)C#Cc1ccc2c(c1)NC(=O)/C2=C(\Nc1ccc(CN(C)C)cc1)c1ccccc1 (library stock concentration (final ~1000-fold dilution): 10 mM),NF-kB SEAP reporter activity,RAW-Dual [3]; agonist: LPS (TLR4) 0.1 ug/mL,0.241
same,NF-kB SEAP reporter activity,RAW-Dual [3]; [6],0.173
same,NF-kB SEAP reporter activity,RAW-Dual [3]; [7],0.074
same,NF-kB SEAP reporter activity,RAW-Dual [3]; [8],0.121
CCNC(=O)C#Cc1ccc2c(c1)NC(=O)/C2=C(\Nc1ccc(CN(C)C)cc1)c1ccccc1,NF-kB SEAP reporter activity,RAW-Dual [1]; [9],0.134
same,NF-kB SEAP reporter activity,RAW-Dual [1]; [10],0.297
Cc1cc(N2CCOCC2)ccc1Nc1nc(NC2CCCCC2)c2nc[nH]c2n1,NF-kB SEAP reporter activity,RAW-Dual [1]; [4],0.925
same,NF-kB SEAP reporter activity,RAW-Dual [1]; [5],1.04
Cc1cc(N2CCOCC2)ccc1Nc1nc(NC2CCCCC2)c2nc[nH]c2n1 (library stock concentration (final ~1000-fold dilution): 10 mM),NF-kB SEAP reporter activity,RAW-Dual [2]; agonist: LPS (TLR4) 0.1 ug/mL,1.44
same,NF-kB SEAP reporter activity,RAW-Dual [2]; [6],0.814
same,NF-kB SEAP reporter activity,RAW-Dual [2]; [7],1
same,NF-kB SEAP reporter activity,RAW-Dual [2]; [8],0.926
COc1ccc(-c2nc(-c3cc(C(F)(F)F)cc(C(F)(F)F)c3)n(Cc3ccc(C(N)=O)cc3)c2-c2ccc(OC)cc2)cc1,NF-kB SEAP reporter activity,RAW-Dual [1]; [4],0.356
same,NF-kB SEAP reporter activity,RAW-Dual [1]; [5],0.734
